# According to PubChem BioAssay AID1745853 (National Center for Advancing Translational Sciences (NCATS), 2022):
# Some of the results follow. Shown are side measurements of this screen, not its main read-out; they come without a call.
# Key:
# Assay in all cases: Primary Screen for Target Class Profiling of Small Molecule Inhibitors of Methyltransferases
# [1] = target: Glycine N-methyltransferase (Homo sapiens) (UniProt Q14749); conditions: purified enzyme, MTase-Glo SAH luminescence; measured here: GNMT inhibition; at 40 µM; stronger effect = lower value
# How it was run: (§1)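 Each enzyme was assayed with SAM and its substrate. SAH formation detected by MTase-Glo luminescence; single-point 40 uM screen[…].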
# [2] = target: Guanidinoacetate N-methyltransferase (Homo sapiens) (UniProt Q14353); conditions: purified enzyme, MTase-Glo SAH luminescence; measured here: GAMT inhibition; at 40 µM; stronger effect = lower value
# How it was run: as §1
# [3] = target: Histamine N-methyltransferase (Homo sapiens) (UniProt P50135); conditions: purified enzyme, MTase-Glo SAH luminescence; measured here: HNMT inhibition; at 40 µM; stronger effect = lower value
# How it was run: as §1
# [4] = target: Nicotinamide N-methyltransferase (Homo sapiens) (UniProt P40261); conditions: purified enzyme, MTase-Glo SAH luminescence; measured here: NNMT inhibition; at 40 µM; stronger effect = lower value
# How it was run: as §1
# [5] = target: Phenylethanolamine N-methyltransferase (Homo sapiens) (UniProt P11086); conditions: purified enzyme, MTase-Glo SAH luminescence; measured here: PNMT inhibition; at 40 µM; stronger effect = lower value
# How it was run: as §1
# On the % scale 0 is the no-effect control and ±100 the full control effect.
SMILES,"activity change, negative = inhibition [1] [%]","activity change, negative = inhibition [2] [%]","activity change, negative = inhibition [3] [%]","activity change, negative = inhibition [4] [%]","activity change, negative = inhibition [5] [%]"
Cc1c(C)c(NCC(=O)N(C)C2CCN(Cc3ccc(C(N)=O)cc3)CC2)c(C)c(C)c1N,-9.52,-2.82,-15.9,-17.8,-7.45
CC(C)CCn1c(=O)c2ccc(C(=O)NC(C)C)cc2n2c(=O)n(CC(=O)Nc3cccc(F)c3)nc12,0.563,0.851,1,-8.03,-2.52
CC(C)CCNC(=O)C1(C)Cn2nc(C(=O)N3CCN(c4ccccc4F)CC3)cc2C(=O)N1C (stereo not drawn),4.78,1.19,6.63,7.39,3.39
O=C(COc1ccccc1)N1CCC2(CC1)OCCN(CCc1ccccc1)C2=O,-2.03,-0.703,-1.52,-6.83,-0.588
CSc1ccccc1N1CCN(CCCCCC(=O)NC2CCCc3ccccc32)CC1 (stereo not drawn),-0.587,7.79,-9.22,-6.46,6.23
COc1cc2ncnc(Nc3ccc(NC(=O)c4ccccc4)cc3)c2cc1OC,–,23.1,–,-9.68,-0.916
COc1cccc(CNS(=O)(=O)c2ccc3c(c2)n(C)c(=O)n3C)c1,8.31,0,2.64,-2.37,-0.24
CN(CC[C@H]1CN(C(=O)C(C)(C)C)CC[C@H]1CC(=O)O)c1ccccc1,-9.26,-0.704,-1.13,-1.71,-4.81
C[C@]1(CO)[C@H]2Cc3sc(NC(=O)C4CCC4)nc3[C@@H](CC(=O)N3CCCCC3)[C@]2(C)CC[C@H]1O,-2.83,-3.32,-2.67,-10.4,-1.07
C[C@H]1O[C@@H](O[C@H]2[C@@H](O)C[C@H](O[C@H]3[C@@H](O)C[C@H](O[C@H]4CC[C@@]5(C)[C@H](CC[C@@H]6[C@@H]5C[C@@H](O)[C@]5(C)[C@@H](C7=CC(=O)OC7)CC[C@]65O)C4)O[C@@H]3C)O[C@@H]2C)C[C@H](O)[C@@H]1O,3.67,-10.1,-2.34,-17.2,-12.3
C=C1CC[C@H]2[C@@H](/C=C(\C)C(=O)[C@@]3(OC(C)=O)C[C@H](C)[C@H](OC(C)=O)[C@@H]3[C@H]1OC(C)=O)C2(C)C,2.99,2.94,6.65,-13.9,-3.76
Cc1ccc(C)c(NC(=O)Cn2c(=O)oc3cc(S(=O)(=O)N4CCCCC4)ccc32)c1,-3.39,4.5,0.515,5.77,-2.21
C=C(C(=O)O[C@H]1C/C(C)=C/CC/C(CO)=C/[C@H]2OC(=O)C(=C)[C@H]12)C(O)CO (stereo partly drawn),-2.56,2.54,5.93,-7.36,1.2
COc1ccccc1CNC(=O)[C@@H]1OCCN(C2CC2)[C@H]1c1ccccc1,-3.41,-3.33,-4.21,-4.48,-3.29
CCN1C(=O)c2cc(C(=O)NCCc3ccc(OC)c(OC)c3)nn2CC1(C)C(=O)NC1CCCC1 (stereo not drawn),-6.79,-0.61,-4.4,-10.2,-6.01
Cn1cc([C@@H](NC(=O)c2ccc3c(c2)CCCC3)C2CC(O)C2)cn1 (stereo partly drawn),-3.57,-7.28,-2.55,-5.41,-1.84
O=C(C1CCCN1C(=O)Cc1ccc(F)cc1)N1CCC(N2CCOCC2=O)CC1 (stereo not drawn),-3.46,-6.05,-2.3,-6.36,-1.89
CCCS(=O)(=O)N1CC(Oc2ccccc2-c2nc(C3CC3)no2)C1,-6.11,-2.9,-0.741,-11,-4.75

SMILES,"activity change, negative = inhibition [1] [%]","activity change, negative = inhibition [2] [%]","activity change, negative = inhibition [3] [%]","activity change, negative = inhibition [4] [%]","activity change, negative = inhibition [5] [%]"
Cn1cc(CN2CCOC[C@H]2c2ncc(C(C)(C)C)[nH]2)c2ccccc21,-7.76,-10.3,-8.14,-5.98,-4.35
COc1ccccc1CNC(=O)C1(C)Cn2nc(-c3ccccc3)cc2C(=O)N1CCc1ccc(SC)cc1 (stereo not drawn),0.332,5.8,1.74,3.83,-0.643
CC(=O)N(C1CC1)C1CCOC2(CCN(C(=O)c3sc(C)nc3C)CC2)C1 (stereo not drawn),-0.259,-1.25,1.56,-0.293,0.697
CCCc1nc2c3ccccc3n(CC(=O)N3CCN(c4ccc(F)cc4)CC3)c(=O)n2n1,-7.97,0,-12.1,-15.2,-19.8
CCc1cc(N2CCOCC(O)(CN3CCCC3)C2)nc(N2CCCC2)n1 (stereo not drawn),1.39,0.208,-19,-8.91,14.9
CCc1cc2c(cc3n2CC(C)(C(=O)NC2CCCCCC2)N(Cc2ccco2)C3=O)s1 (stereo not drawn),-1.69,0,2.48,-9.87,-1.28
COC(=O)[C@H](Cc1ccc([N+](=O)[O-])cc1)NC(=O)c1cccc2ccccc12,-0.992,0.03,10.7,-13.7,-2.54
COc1ccccc1-c1ccc(C(=O)N2CCC(NC(=O)Nc3ccc(Cl)cc3)CC2)cc1,-4.4,-5.9,-2.92,-4.47,-10.4
COc1cc(OC)c(C(=O)N2CCC3(CC2)[C@H](O)C[C@@H]3OC)cc1OC,-0.567,-1.56,-1.24,-1.46,-0.918
CCCn1c(=O)c2ccccc2n2c(SCc3ccc(F)cc3)nnc12,-6.75,0,6.59,-7.32,-0.578
O=C(Cn1nc2n(Cc3ccc(F)cc3)c(=O)c3ccccc3n2c1=O)c1ccccc1,5.52,0,8.18,1.8,6.21
CC1=C[C@@H](CC#N)[C@H](C(C)C)C[C@H]1CC(=O)N(C)Cc1cccnc1,-7.88,-7.69,-2.65,-27.4,-8.02
CC(C)(C)c1cc2n(n1)CC(C)(C(=O)NCc1ccccc1)N(Cc1cccc(F)c1)C2=O (stereo not drawn),2.12,0.392,2.23,-1.51,-2.88
CCC1(O)CCC12CCN(C(=O)C1CC1)CC2 (stereo not drawn),-1.55,-0.648,1.79,-0.287,12.9
Cc1cccc(-c2noc(CCC(=O)N3CCC(C)(c4noc(C)n4)CC3)n2)c1,-8.06,-13.6,-6.24,-21.1,-15.9
CCn1cc(CN2C[C@@H](CO)[C@H](NC(=O)COC)C2)c2ccccc21,-7.3,-11.4,-11.1,-18.7,-14.1
CCOC(=O)c1cc2n(n1)CC(C)(C(=O)NC1CCC(C)CC1)N(c1ccc(Cl)cc1C)C2=O (stereo not drawn),0.541,2.71,-0.538,-4.26,-1.97
Cc1noc2c1-c1ccccc1C(c1ccc(Cl)cc1)=N[C@H]2CC(N)=O,1.56,2.02,7.3,-23.3,-9.43
